Peptide text beside a SMILES is read from it.
Test system: ZIKV
Assay: ZIKV entry into Vero cells, viral RNA by qRT-PCR
Conditions: ZIKV pre-incubated with 200 μM peptide 30 min, MOI 0.5, normalized to GAPDH

CC[C@H](C)[C@H](NC(=O)[C@@H](NC(=O)CNC(=O)[C@H](CC(C)C)NC(=O)[C@H](Cc1ccccc1)NC(=O)[C@H](Cc1ccccc1)NC(=O)[C@H](CC(C)C)NC(=O)[C@H](CC(C)C)NC(=O)[C@H](CC(C)C)NC(=O)[C@H](CCSC)NC(=O)[C@@H](N)CO)[C@@H](C)O)C(=O)N[C@@H](CO)C(=O)N[C@@H](CC(C)C)C(=O)N[C@@H](CO)C(=O)N[C@@H](CC(C)C)C(=O)N[C@@H](CS)C(=O)N[C@@H](CCC(N)=O)C(=O)N[C@@H](CC(=O)O)C(=O)N[C@@H](CC(=O)O)C(=O)N[C@@H](CCC(N)=O)C(=O)N[C@@H](CCC(=O)O)C(=O)N[C@@H](CCCNC(=N)N)C(=O)N[C@@H](CS)C(=O)O [Yodha peptide] (H-SMLLLFFLGTISLSLCQDDQERC-OH; N-terminus and C-terminus assumed)
ZIKV RNA expressed compared to the OVA and virus-only controls: 20%

Reference: US11666630B2, “Polypeptides for managing viral infections” (priority 2016, dated 2023)
